{
  "source": "PubChem BioAssay AID504332",
  "about": "(National Center for Advancing Translational Sciences (NCATS), 2011)",
  "note": "Hit rate of the full screen: of about 350,000 compounds, about 31,000 (8.9%) were called active. The shares of active, inactive and inconclusive entries below differ from those in the screen. Calls come from the whole dose curve; as a rule, active = well fitted inhibition curve with a large enough effect; inconclusive = small, poorly fitted or top-dose-only effect; inactive = no such curve, though single readings can be large or run the other way. A potency beside an inconclusive call is a rough fit, not a confirmed value. % is set by controls: 0 for no effect and ±100 for the full control effect; potency is the fitted concentration of half-maximal effect; tags give direction and shape of the fitted curve.",
  "data": [
    {"target": "Histone-lysine N-methyltransferase EHMT2 (Homo sapiens) (UniProt Q96KQ7)", "sequence (Q96KQ7 whole entry, looked up)": "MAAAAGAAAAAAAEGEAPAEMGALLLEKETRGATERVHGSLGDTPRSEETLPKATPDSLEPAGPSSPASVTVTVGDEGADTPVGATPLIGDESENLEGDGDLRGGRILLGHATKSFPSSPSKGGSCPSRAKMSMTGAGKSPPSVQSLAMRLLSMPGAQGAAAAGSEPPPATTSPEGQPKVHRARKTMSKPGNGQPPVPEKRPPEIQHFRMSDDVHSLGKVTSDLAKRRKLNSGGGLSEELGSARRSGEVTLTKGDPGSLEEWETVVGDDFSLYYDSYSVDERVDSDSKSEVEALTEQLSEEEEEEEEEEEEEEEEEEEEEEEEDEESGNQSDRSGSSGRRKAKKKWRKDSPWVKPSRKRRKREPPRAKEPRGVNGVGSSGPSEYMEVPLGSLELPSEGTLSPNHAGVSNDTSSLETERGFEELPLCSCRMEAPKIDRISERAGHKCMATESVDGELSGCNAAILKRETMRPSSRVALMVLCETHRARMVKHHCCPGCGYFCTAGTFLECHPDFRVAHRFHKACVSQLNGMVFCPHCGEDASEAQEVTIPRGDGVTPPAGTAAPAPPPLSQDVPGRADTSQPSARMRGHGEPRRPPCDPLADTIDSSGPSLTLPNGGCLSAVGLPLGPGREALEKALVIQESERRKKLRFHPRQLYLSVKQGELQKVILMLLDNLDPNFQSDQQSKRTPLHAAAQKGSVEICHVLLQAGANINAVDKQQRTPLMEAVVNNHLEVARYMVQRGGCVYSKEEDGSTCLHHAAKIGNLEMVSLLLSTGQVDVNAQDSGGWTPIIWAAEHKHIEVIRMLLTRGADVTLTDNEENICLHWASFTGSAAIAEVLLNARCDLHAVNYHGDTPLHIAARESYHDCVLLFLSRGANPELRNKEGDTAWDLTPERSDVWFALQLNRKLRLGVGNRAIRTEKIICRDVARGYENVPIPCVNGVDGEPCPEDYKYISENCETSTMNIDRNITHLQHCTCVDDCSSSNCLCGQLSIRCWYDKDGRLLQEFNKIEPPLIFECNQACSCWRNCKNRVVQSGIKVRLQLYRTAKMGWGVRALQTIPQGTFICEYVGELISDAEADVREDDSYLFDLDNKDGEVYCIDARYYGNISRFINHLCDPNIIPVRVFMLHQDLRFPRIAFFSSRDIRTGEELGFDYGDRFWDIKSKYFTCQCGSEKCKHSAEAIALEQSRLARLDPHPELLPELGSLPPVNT", "assay": "qHTS Assay for Inhibitors of Histone Lysine Methyltransferase G9a; note: nearly all actives have a fitted effect of over 75% in size", "conditions": "G9a H3K9 monomethylation, AlphaScreen, 2 h; activity, negative = inhibition: at 59 µM (top of the series) unless noted", "procedure,_shortened": "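Step 1: enzyme (final 20 nM) with compound, 15 min RT. Step 2: substrate peptide 500 nM and SAM 20 uM, 2 h RT. Step 3: anti-H3K9me1 antibody and AlphaScreen beads, 10 min, then plate read.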", "values": [
      {"smiles": "O=C(NCCCN1CCOCC1)c1cc(Cl)ccc1OCc1ccccc1", "activity, negative = inhibition": "inactive: 34.1% [at 102 µM]"},
      {"smiles": "Cc1cc(/C=N/NC(=O)c2nn(C)cc2Cl)c(C)n1-c1cccc(Br)c1", "Potency": "inconclusive: 89.1 µM [inhibitor, single point]"},
      {"smiles": "C=CCn1c(SCc2ccc(Br)cc2F)nc2cc(C(=O)O)ccc2c1=O", "Potency": "inconclusive: 89.1 µM [inhibitor, single point]"},
      {"smiles": "NC(=O)CC(NC(=O)c1ccccc1)c1ccc(N2CCN(c3ccccn3)CC2)c([N+](=O)[O-])c1", "note": "(stereo not given)", "Potency": "active: 79.4 µM"},
      {"smiles": "CC(C)c1ccc(-c2nn(-c3ccccc3)cc2C2C(C#N)=C(N)OC3=C2C(=O)CC(C)(C)C3)cc1", "note": "(stereo not given)", "Potency": "inconclusive: 89.1 µM [inhibitor, single point]"},
      {"smiles": "O=C(CNc1ccccc1F)Nc1cccc(S(=O)(=O)N2CCCCC2)c1", "Potency": "inconclusive: 56.2 µM [inhibitor, partial curve, poor fit]"},
      {"smiles": "CC1CCCN(c2nc3ccccc3nc2C(C#N)S(=O)(=O)c2ccccc2)C1", "note": "(stereo not given)", "activity, negative = inhibition": "inconclusive: -83.2% [inhibitor]"},
      {"smiles": "Cc1sc2nc(SCc3nc(-c4ccccc4)no3)n(-c3ccccc3)c(=O)c2c1C", "Potency": "active: 3.16 µM"},
      {"smiles": "COc1ccccc1-c1nc(C#N)c(N2CCC(C(N)=O)CC2)o1", "activity, negative = inhibition": "inactive: -5.97% [at 102 µM]"},
      {"smiles": "Cc1ccc(S(=O)(=O)N/N=C\\c2cc3c(cc2[N+](=O)[O-])OCO3)cc1", "Potency": "active: 5.62 µM"},
      {"smiles": "Cc1cc2cc(OCC(=O)O)ccc2n1C", "activity, negative = inhibition": "inactive: 10.4%"},
      {"smiles": "CCCCN(C(=O)CC(c1ccccc1)c1ccccc1)c1c(N)n(CCC)c(=O)[nH]c1=O", "Potency": "inconclusive: 79.4 µM [inhibitor, single point]"},
      {"smiles": "CCc1ccc(OCC(O)CN2CCN(c3ccc(OC)cc3)CC2)cc1", "note": "(stereo not given)", "Potency": "active: 10 µM"},
      {"smiles": "CCOC(=O)N1CCN(C/C(C)=C/c2ccccc2)CC1", "Potency": "active: 20 µM"},
      {"smiles": "Cc1ccc(C(=O)N2CC(=O)Nc3ccc(Br)cc3C2c2ccc(F)cc2)cc1C", "note": "(stereo not given)", "activity, negative = inhibition": "inactive: -27%"},
      {"smiles": "COc1ccc(CCNC2CCN(C)CC2)cc1OC", "Potency": "inconclusive: 89.1 µM [inhibitor, single point]"},
      {"smiles": "O=C(NC(Nc1nc2ccc([N+](=O)[O-])cc2s1)(C(F)(F)F)C(F)(F)F)c1cccnc1", "Potency": "inconclusive: 89.1 µM [inhibitor, single point]"},
      {"smiles": "CCc1ccc[n+](-c2[nH]c(=O)sc2/C=N/N=C(\\[O-])CCn2c3ccccc3c3ccccc32)c1", "Potency": "active: 44.7 µM"},
      {"smiles": "COc1ccc(C(=O)N/C(=C/c2ccc(Cl)cc2)C(=O)Nc2ccc(C(=O)O)cc2)cc1", "Potency": "inconclusive: 0.794 µM [inhibitor, full curve]"},
      {"smiles": "CCN1CNC(=S)N(C(C)c2ccccc2)C1", "note": "(stereo not given)", "Potency": "inconclusive: 35.5 µM [inhibitor, full curve]"}
    ]}
  ]
}
